Data on 30 compounds can be found in PubChem BioAssay AID1745853 (National Center for Advancing Translational Sciences (NCATS), 2022).

The list shows a part of the results. Further columns of the screen follow, without active or inactive calls.

What all share (experiment): Primary Screen for Target Class Profiling of Small Molecule Inhibitors of Methyltransferases
The target of test [1] is Glycine N-methyltransferase (Homo sapiens) (UniProt Q14749). As to conditions: purified enzyme, MTase-Glo SAH luminescence; measured here: GNMT inhibition; at 40 µM; stronger effect = lower value. Put shortly: (§1)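 Each enzyme was reacted with SAM and its substrate, with compounds tested once at 40 uM; SAH formed was read by MTase-Glo luminescence.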
The target of test [2] is Guanidinoacetate N-methyltransferase (Homo sapiens) (UniProt Q14353). Conditions: purified enzyme, MTase-Glo SAH luminescence; measured here: GAMT inhibition; at 40 µM; stronger effect = lower value. The method in brief:
as §1

In test [3] the target is Histamine N-methyltransferase (Homo sapiens) (UniProt P50135). As to conditions: purified enzyme, MTase-Glo SAH luminescence; measured here: HNMT inhibition; at 40 µM; stronger effect = lower value. The method in brief:
as §1

Test [4] concerns the target Nicotinamide N-methyltransferase (Homo sapiens) (UniProt P40261). As to conditions: purified enzyme, MTase-Glo SAH luminescence; measured here: NNMT inhibition; at 40 µM; stronger effect = lower value. The method in brief: as §1
In test [5] the target is Phenylethanolamine N-methyltransferase (Homo sapiens) (UniProt P11086). As to conditions: purified enzyme, MTase-Glo SAH luminescence; measured here: PNMT inhibition; at 40 µM; stronger effect = lower value. Put shortly: as §1
% is set by controls: 0 for no effect and ±100 for the full control effect.

As to `CCOc1ccc(N2C(=O)CSc3c(c4ccccc4n3C)C2C(=O)NCCCOC(C)C)cc1` (stereo not given), the activity change, negative = inhibition worked out at 7.43% in test [1]; 0% in test [2]; 0.756% in test [3]; 1.29% in test [4]; 6.29% in test [5].
In the same order, the values of `CNS(=O)(=O)CC1CCC(N(C)c2ncnc3[nH]ccc23)CC1` (stereo not given) are -2.9%, -7.21%, 4.85%, -38.3% and -59.3%.
In the same order, the values of `COCCCNC(=O)c1ccc(Cn2c(=O)c3ccccc3n(Cc3ccc(C(C)C)cc3)c2=O)cc1` are -6.24%, -8.04%, 11.1%, -22.7% and 1.71%.
Regarding `COc1ccc(OC)c2c1cc1n2CC(C)(C(=O)NC2CCCC2)N(Cc2ccccc2)C1=O` (stereo not given), the activity change, negative = inhibition was determined as 7.34% in test [1]; 0% in test [2]; 8.56% in test [3]; 9.08% in test [4]; 3.52% in test [5].
For `CC1CCC2(C)C(CC(O)C(O)C23CO3)C1(C)CCC1=CC(O)OC1=O` (stereo not given) the same measures were -8.13%, -9.27%, 6.58%, -21% and -5.56%.
Take `Cc1ccc(CNC(=O)CSc2nnc3n(Cc4ccc(C)cc4)c(=O)c4ccccc4n23)cc1`: the activity change, negative = inhibition came out at 1.33% in test [1]; 3.02% in test [2]; 9.46% in test [3]; 2.88% in test [4]; 1.03% in test [5].
For `O=C(c1noc2c1CCCC2)N1CCOc2ccc(CN3CCN(c4ccccn4)CC3)cc2C1` the same measures were -0.551%, 1.94%, 0.538%, 2.25% and 8.79%.
With `COc1ccccc1C(=O)N1CC(N(C)c2ccccc2C)C1`, the activity change, negative = inhibition in test [1] is -1.19%; in test [2] it was -4.19%; in test [3] it was -1.09%; in test [4], -13.2%; in test [5], -2.4%.
As for `CC(=O)N(C)C1(c2ccccc2)CCN(CCC[C@]2(c3ccc(Cl)c(Cl)c3)CCCN(C(=O)c3ccccc3)C2)CC1`, the activity change, negative = inhibition is -6.28% in test [1]; -11% in test [2]; -28.4% in test [3]; -78.6% in test [4]; -16.9% in test [5].
For `O=C([C@@H]1CCCN(c2ccc3[nH]c(C4(n5cc(Cl)cn5)CC4)nc3n2)C1)N1CCCC1` the same measures were -8.57%, -11.1%, -63.6%, -30.1% and -19.9%.
For `CC(=O)NC[C@@H]1C=C(C)[C@H](Cc2nnc(-c3cncn3C)o2)C[C@H]1C(C)C` the same measures were -6.4%, -6.95%, -5.23%, -11.8% and -31.5%.
With `CC(C)NC(=O)c1ccc2c(=O)n(Cc3ccccc3)c3n[nH]c(=O)n3c2c1`, the activity change, negative = inhibition in test [1] is -11.5%; in test [2] it was 0%; in test [3], 0.41%; in test [4], -18.1%; in test [5] it was -13.8%.
On to `COc1ccc(-c2cc(C(=O)NCc3cccnc3)c3c(c2)N(C)CCO3)cc1OC`, for which the activity change, negative = inhibition in test [1] is -37.2%; in test [2] it was -20.2%; in test [3], -60%; in test [4], -26.5%; in test [5] it was -18.2%.
For `O=C(Nc1cccc([N+](=O)[O-])c1)c1cccc(S(=O)(=O)N2CCCCCC2)c1` the same measures were -2.83%, 2.42%, 2.12%, -23.8% and -11.4%.
With `CC1=NS(=O)(=O)N(CCc2ccccc2)C=C1C(=O)O`, the activity change, negative = inhibition in test [1] is 1.24%; in test [2], 1.67%; in test [3], 2.3%; in test [4], 2.94%; in test [5] it was 13.6%.
For `Cc1ccc(C)c(N2CCN(CCCNC(=O)CCc3nnc4n(C)c(=O)c5ccccc5n34)CC2)c1` the same measures were -4.68%, 2.41%, -2.14%, -18.7% and -5.76%.
On to `CCOC(=O)c1cc2n(n1)CC(C)(C(=O)NC1CCCCC1)N(c1ccccc1CC)C2=O` (stereo not given), for which the activity change, negative = inhibition was 6.08% in test [1]; 0% in test [2]; -6.39% in test [3]; 4.55% in test [4]; 5.74% in test [5].
As to `CC(NCCCc1cccc(C(F)(F)F)c1)c1cccc2ccccc12` (stereo not given), the activity change, negative = inhibition in test [1] was 1.35%; in test [3], -0.187%.
As to `COc1ccc(-c2n[nH]n3c2nc(=O)c2ccc(C(=O)NC4CCCCC4)cc23)cc1`, the activity change, negative = inhibition worked out at 1.51% in test [1]; 0% in test [2]; 0.166% in test [3]; 5.61% in test [4]; 1.53% in test [5].
In the same order, the values of `C[N+](C)(C)CCOC(N)=O` are 12.1%, 11.3%, 12.6%, -4.89% and -2.62%.
`CC(C)c1cc(CNc2nc(Nc3cc(C4CC4)[nH]n3)cc(N3CCN(C)CC3)n2)on1`: the activity change, negative = inhibition is -67.9% in test [1]; 2.06% in test [2]; -61.2% in test [3]; -23.5% in test [4]; 2.57% in test [5].
In the same order, the values of `CCCCc1nn(CC(=O)N2CCCC2c2nc(C3CC3)no2)c(=O)n1CC` (stereo not given) are -6%, -6.28%, -2.76%, -10.7% and -12%.
For `OC[C@H]1O[C@H](n2cnc3c(N[C@H]4CCC[C@@H]4O)ncnc32)[C@H](O)[C@@H]1O` the same measures were 10.9%, 19.7%, 10.4%, -0.268% and 7.94%.
For the compound `Cc1cccn2c(CC(=O)N3CCn4nc(CO)cc4C3)cnc12`, the activity change, negative = inhibition in test [1] was -8.81%; in test [2] it was -10.9%; in test [3], -12.8%; in test [4], -8.75%; in test [5], 3.71%.
In the same order, the values of `CC(C)Cn1c(=O)c2ccc(C(=O)NC(C)C)cc2n2c(SCc3ccc(F)cc3)nnc12` are -3.17%, -10.7%, 5.23%, -11.4% and -6.11%.
As for `CC(=O)N(O)CCCCCN1C(=O)CCC1=O`, the activity change, negative = inhibition in test [1] is 5.28%; in test [2], 7.36%; in test [3], 11%; in test [4], -14.7%; in test [5], 6.04%.
As to `CC(C)c1cc(C(C)C)c(CC(=O)NS(=O)(=O)Oc2c(C(C)C)cccc2C(C)C)c(C(C)C)c1`, the activity change, negative = inhibition was -18.1% in test [1]; -33.4% in test [2]; -0.604% in test [3]; -46.9% in test [4]; -16.2% in test [5].
For `CC(C)(C)NC[C@H](O)COc1cccc2c1CCCC2=O`, the results for the activity change, negative = inhibition in test [2], in test [4] and in test [5] were 7.19%, -8.77% and 4.6%, respectively.
`CCc1ccccc1N1C(=O)c2cc(-c3ccc(OC)cc3)nn2CC1(C)C(=O)NCc1ccccc1OC` (stereo not given): the activity change, negative = inhibition in test [1] amounted to 3.45%; in test [2] it was 0%; in test [3], 5.31%; in test [4], 7.25%; in test [5], 0.082%.
Take `Cc1cc2[nH]c(=O)[nH]c2cc1S(=O)(=O)Nc1cccc(Cl)c1`: the activity change, negative = inhibition was -4.03% in test [1]; 6.15% in test [2]; -1.69% in test [3]; -12.8% in test [4]; -5% in test [5].
